Experimental data reported in patent US20110319597A1 (CAPHALON AUSTRALIA, published 2011).

B1: TNFα dAb Fc variant L47H (Fc fusion, name in Kabat numbering)
chain: DIQMTQSPSSLSASVGDRVTITCRASQAIDSYLHWYQQKPGKAPKLHIYSASNLETGVPSRFSGSGSGTDFTLTISSLLPEDFATYYCQQVVWRPFTFGQGTKVEIKRV[human IgG1 Fc with changes left out]
B2: TNFα dAb Fc variant L78D (Fc fusion, name in Kabat numbering)
chain: DIQMTQSPSSLSASVGDRVTITCRASQAIDSYLHWYQQKPGKAPKLLIYSASNLETGVPSRFSGSGSGTDFTLTISSDLPEDFATYYCQQVVWRPFTFGQGTKVEIKRV[human IgG1 Fc with changes left out]
B3: TNFα dAb Fc variant L78P (Fc fusion, name in Kabat numbering)
chain: DIQMTQSPSSLSASVGDRVTITCRASQAIDSYLHWYQQKPGKAPKLLIYSASNLETGVPSRFSGSGSGTDFTLTISSPLPEDFATYYCQQVVWRPFTFGQGTKVEIKRV[human IgG1 Fc with changes left out]
B4: TNFα dAb Fc variant L73D (Fc fusion, name in Kabat numbering)
chain: DIQMTQSPSSLSASVGDRVTITCRASQAIDSYLHWYQQKPGKAPKLLIYSASNLETGVPSRFSGSGSGTDFTDTISSLLPEDFATYYCQQVVWRPFTFGQGTKVEIKRV[human IgG1 Fc with changes left out]
B5: TNFα dAb Fc variant P80A (Fc fusion, name in Kabat numbering)
chain: DIQMTQSPSSLSASVGDRVTITCRASQAIDSYLHWYQQKPGKAPKLLIYSASNLETGVPSRFSGSGSGTDFTLTISSLLAEDFATYYCQQVVWRPFTFGQGTKVEIKRV[human IgG1 Fc with changes left out]
B6: TNFα dAb Fc variant P80Y (Fc fusion, name in Kabat numbering)
chain: DIQMTQSPSSLSASVGDRVTITCRASQAIDSYLHWYQQKPGKAPKLLIYSASNLETGVPSRFSGSGSGTDFTLTISSLLYEDFATYYCQQVVWRPFTFGQGTKVEIKRV[human IgG1 Fc with changes left out]
B7: TNFα dAb Fc variant L78Q (Fc fusion, name in Kabat numbering)
chain: DIQMTQSPSSLSASVGDRVTITCRASQAIDSYLHWYQQKPGKAPKLLIYSASNLETGVPSRFSGSGSGTDFTLTISSQLPEDFATYYCQQVVWRPFTFGQGTKVEIKRV[human IgG1 Fc with changes left out]
B8: TNFα dAb Fc variant Q38D (Fc fusion, name in Kabat numbering)
chain: DIQMTQSPSSLSASVGDRVTITCRASQAIDSYLHWYQDKPGKAPKLLIYSASNLETGVPSRFSGSGSGTDFTLTISSLLPEDFATYYCQQVVWRPFTFGQGTKVEIKRV[human IgG1 Fc with changes left out]
B9: TNFα dAb Fc variant L47P (Fc fusion, name in Kabat numbering)
chain: DIQMTQSPSSLSASVGDRVTITCRASQAIDSYLHWYQQKPGKAPKLPIYSASNLETGVPSRFSGSGSGTDFTLTISSLLPEDFATYYCQQVVWRPFTFGQGTKVEIKRV[human IgG1 Fc with changes left out]
B10: TNFα dAb Fc variant P80Q (Fc fusion, name in Kabat numbering)
chain: DIQMTQSPSSLSASVGDRVTITCRASQAIDSYLHWYQQKPGKAPKLLIYSASNLETGVPSRFSGSGSGTDFTLTISSLLQEDFATYYCQQVVWRPFTFGQGTKVEIKRV[human IgG1 Fc with changes left out]
B11: TNFα dAb Fc variant L79P (Fc fusion, name in Kabat numbering)
chain: DIQMTQSPSSLSASVGDRVTITCRASQAIDSYLHWYQQKPGKAPKLLIYSASNLETGVPSRFSGSGSGTDFTLTISSLPPEDFATYYCQQVVWRPFTFGQGTKVEIKRV[human IgG1 Fc with changes left out]
B12: TNFα dAb Fc variant L78Y (Fc fusion, name in Kabat numbering)
chain: DIQMTQSPSSLSASVGDRVTITCRASQAIDSYLHWYQQKPGKAPKLLIYSASNLETGVPSRFSGSGSGTDFTLTISSYLPEDFATYYCQQVVWRPFTFGQGTKVEIKRV[human IgG1 Fc with changes left out]
B13: TNFα dAb Fc variant L73A (Fc fusion, name in Kabat numbering)
chain: DIQMTQSPSSLSASVGDRVTITCRASQAIDSYLHWYQQKPGKAPKLLIYSASNLETGVPSRFSGSGSGTDFTATISSLLPEDFATYYCQQVVWRPFTFGQGTKVEIKRV[human IgG1 Fc with changes left out]
B14: TNFα dAb Fc variant S60Y (Fc fusion, name in Kabat numbering)
chain: DIQMTQSPSSLSASVGDRVTITCRASQAIDSYLHWYQQKPGKAPKLLIYSASNLETGVPYRFSGSGSGTDFTLTISSLLPEDFATYYCQQVVWRPFTFGQGTKVEIKRV[human IgG1 Fc with changes left out]
B15: TNFα dAb Fc variant R61Y (Fc fusion, name in Kabat numbering)
chain: DIQMTQSPSSLSASVGDRVTITCRASQAIDSYLHWYQQKPGKAPKLLIYSASNLETGVPSYFSGSGSGTDFTLTISSLLPEDFATYYCQQVVWRPFTFGQGTKVEIKRV[human IgG1 Fc with changes left out]
B16: TNFα dAb Fc variant P80L (Fc fusion, name in Kabat numbering)
chain: DIQMTQSPSSLSASVGDRVTITCRASQAIDSYLHWYQQKPGKAPKLLIYSASNLETGVPSRFSGSGSGTDFTLTISSLLLEDFATYYCQQVVWRPFTFGQGTKVEIKRV[human IgG1 Fc with changes left out]
B17: TNFα dAb Fc variant P80K (Fc fusion, name in Kabat numbering)
chain: DIQMTQSPSSLSASVGDRVTITCRASQAIDSYLHWYQQKPGKAPKLLIYSASNLETGVPSRFSGSGSGTDFTLTISSLLKEDFATYYCQQVVWRPFTFGQGTKVEIKRV[human IgG1 Fc with changes left out]
B18: TNFα dAb Fc variant L73H (Fc fusion, name in Kabat numbering)
chain: DIQMTQSPSSLSASVGDRVTITCRASQAIDSYLHWYQQKPGKAPKLLIYSASNLETGVPSRFSGSGSGTDFTHTISSLLPEDFATYYCQQVVWRPFTFGQGTKVEIKRV[human IgG1 Fc with changes left out]
B19: TNFα dAb Fc variant Q37Y (Fc fusion, name in Kabat numbering)
chain: DIQMTQSPSSLSASVGDRVTITCRASQAIDSYLHWYYQKPGKAPKLLIYSASNLETGVPSRFSGSGSGTDFTLTISSLLPEDFATYYCQQVVWRPFTFGQGTKVEIKRV[human IgG1 Fc with changes left out]
B20: TNFα dAb Fc variant P80S (Fc fusion, name in Kabat numbering)
chain: DIQMTQSPSSLSASVGDRVTITCRASQAIDSYLHWYQQKPGKAPKLLIYSASNLETGVPSRFSGSGSGTDFTLTISSLLSEDFATYYCQQVVWRPFTFGQGTKVEIKRV[human IgG1 Fc with changes left out]
B21: TNFα dAb Fc variant R61P (Fc fusion, name in Kabat numbering)
chain: DIQMTQSPSSLSASVGDRVTITCRASQAIDSYLHWYQQKPGKAPKLLIYSASNLETGVPSPFSGSGSGTDFTLTISSLLPEDFATYYCQQVVWRPFTFGQGTKVEIKRV[human IgG1 Fc with changes left out]
B22: TNFα dAb Fc variant Q37A (Fc fusion, name in Kabat numbering)
chain: DIQMTQSPSSLSASVGDRVTITCRASQAIDSYLHWYAQKPGKAPKLLIYSASNLETGVPSRFSGSGSGTDFTLTISSLLPEDFATYYCQQVVWRPFTFGQGTKVEIKRV[human IgG1 Fc with changes left out]
B23: TNFα dAb Fc variant L79Q (Fc fusion, name in Kabat numbering)
chain: DIQMTQSPSSLSASVGDRVTITCRASQAIDSYLHWYQQKPGKAPKLLIYSASNLETGVPSRFSGSGSGTDFTLTISSLQPEDFATYYCQQVVWRPFTFGQGTKVEIKRV[human IgG1 Fc with changes left out]
B24: TNFα dAb Fc variant Q37P (Fc fusion, name in Kabat numbering)
chain: DIQMTQSPSSLSASVGDRVTITCRASQAIDSYLHWYPQKPGKAPKLLIYSASNLETGVPSRFSGSGSGTDFTLTISSLLPEDFATYYCQQVVWRPFTFGQGTKVEIKRV[human IgG1 Fc with changes left out]
B25: TNFα dAb Fc variant R61D (Fc fusion, name in Kabat numbering)
chain: DIQMTQSPSSLSASVGDRVTITCRASQAIDSYLHWYQQKPGKAPKLLIYSASNLETGVPSDFSGSGSGTDFTLTISSLLPEDFATYYCQQVVWRPFTFGQGTKVEIKRV[human IgG1 Fc with changes left out]
B26: TNFα dAb Fc variant R61A (Fc fusion, name in Kabat numbering)
chain: DIQMTQSPSSLSASVGDRVTITCRASQAIDSYLHWYQQKPGKAPKLLIYSASNLETGVPSAFSGSGSGTDFTLTISSLLPEDFATYYCQQVVWRPFTFGQGTKVEIKRV[human IgG1 Fc with changes left out]
B27: TNFα dAb Fc variant L47Q (Fc fusion, name in Kabat numbering)
chain: DIQMTQSPSSLSASVGDRVTITCRASQAIDSYLHWYQQKPGKAPKLQIYSASNLETGVPSRFSGSGSGTDFTLTISSLLPEDFATYYCQQVVWRPFTFGQGTKVEIKRV[human IgG1 Fc with changes left out]
B28: TNFα dAb Fc variant L78H (Fc fusion, name in Kabat numbering)
chain: DIQMTQSPSSLSASVGDRVTITCRASQAIDSYLHWYQQKPGKAPKLLIYSASNLETGVPSRFSGSGSGTDFTLTISSHLPEDFATYYCQQVVWRPFTFGQGTKVEIKRV[human IgG1 Fc with changes left out]

The binders below were run against T1, recombinant human TNFα (CytoLab) (human, UniProt P01375 fragment) (assay: ELISA on coated human TNFα).
T1 construct: coated on the ELISA plate at 1 µg/ml; also called Tumour necrosis factor alpha
T1 sequence (P01375 77-233 limits assumed): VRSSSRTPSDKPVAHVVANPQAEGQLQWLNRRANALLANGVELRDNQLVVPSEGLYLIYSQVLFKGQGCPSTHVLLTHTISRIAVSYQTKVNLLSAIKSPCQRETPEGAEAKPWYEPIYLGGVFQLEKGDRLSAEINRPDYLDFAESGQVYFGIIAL

Compared with B1, B2 is lower in “A450 (AU)” value: 0.284 AU for the first, 0.176 AU for the second.

First: B3
Second: B4
The “A450 (AU)” value of the first is higher: 0.369 AU for the first, 0.172 AU for the second.

First: B5
Second: B6
The “A450 (AU)” value of the first is higher: 0.947 AU for the first, 0.766 AU for the second.

Going from B7 to B8, the “A450 (AU)” value falls from 0.273 AU to 0.178 AU.

First: B9
Second: B10
The “A450 (AU)” value of the first is lower: 0.193 AU for the first, 0.764 AU for the second.

Compared with B11, B12 is higher in “A450 (AU)” value: 0.246 AU for the first, 0.379 AU for the second.

First: B13
Second: B14
The “A450 (AU)” value of the first is lower: 0.225 AU for the first, 1.35 AU for the second.

Going from B15 to B16, the “A450 (AU)” value rises from 0.783 AU to 0.794 AU.

Compared with B17, B18 is lower in “A450 (AU)” value: 0.782 AU for the first, 0.155 AU for the second.

First: B19
Second: B20
The “A450 (AU)” value of the first is lower: 0.549 AU for the first, 0.91 AU for the second.

Compared with B21, B22 is higher in “A450 (AU)” value: 0.225 AU for the first, 0.877 AU for the second.

First: B23
Second: B24
The “A450 (AU)” value of the first is higher: 1.32 AU for the first, 0.294 AU for the second.

Going from B25 to B26, the “A450 (AU)” value falls from 0.215 AU to 0.21 AU.

Going from B27 to B28, the “A450 (AU)” value falls from 0.369 AU to 0.21 AU.
